According to publication PMC5892938:
The list shows a part of the results. Construct or isoform of the protein are uncertain.

What follows are sequences tested against GST-SBP-ILF3 (Homo sapiens) (UniProt Q12906) (assay: targeted RNA Bind-n-Seq). Settings: RBNS binding buffer: 25 mM Tris pH 7.5, 150 mM KCl, 3 mM MgCl2, 0.1% Tween, 0.5 mg/mL BSA, 1 mM DTT; 27 nM protein, 750 pM RNA pool; temperature not stated; high values mean tight binding; sequences stand for … in GGGUAAAAGCGAGGUGAA…CGGGACAAGUAUUAUGGG.
Work on “UUUUUUUUUUGAGAGCGGAUCGCUCUUCUA [tttttgagapaired]” yielded a binding signal (log2 fold change) of 0.479. For “GUUGUGUGUGUUGGUUCCUAACACACGCAG [gtspaired]”, the binding signal (log2 fold change) was -0.559. Work on “UUUUUUUUUUGAGAUCGGCGCGAUCUCCAG [tttttgagapaired]” yielded a binding signal (log2 fold change) of 0.402. With “UUUUUUUUUUGAGACGGCAACCGUUUCCAG [tttttgagapaired]” the binding signal (log2 fold change) was 0.571. In the case of “GGUGGUGGUGUUGGCUCCUAACACCAUCGC [gtspaired]”, the binding signal (log2 fold change) is reported as -0.788. For “GGUGGUUGUGUUGGAAUCUAACACAGCUAC [gtspaired]”, the binding signal (log2 fold change) was -0.45. With “GUGUGUGGUGUUGGUCCCUAACACCGCGCG [gtspaired]” the binding signal (log2 fold change) was -0.485. “UUUUUUUUUUGAGACGGCGGCCGUCUCCGG [tttttgagapaired]” gave a binding signal (log2 fold change) of 0.996. Work on “UUUUUUUUUUGAGAUCGGGACGAUCUCCUG [tttttgagapaired]” yielded a binding signal (log2 fold change) of 0.729. “UUUUUUUUUUGAGACCGGUUCGGUCUCCGG [tttttgagapaired]” was tested, and the binding signal (log2 fold change) was 0.273. “UUUUUUUUUUGAGACGGCUACCGUUUCCUA [tttttgagapaired]” was tested, and the binding signal (log2 fold change) was 0.379. “GGUUGGUGUGUUGGACCCUAACACACUAAC [gtspaired]” gave a binding signal (log2 fold change) of -0.15. Work on “UUUUUUUUUUGAGACCGACUCGGUCUCCUG [tttttgagapaired]” yielded a binding signal (log2 fold change) of 0.58. “UUUUUUUUUUGAGACUGACUCAGUCUCCUG [tttttgagapaired]” gave a binding signal (log2 fold change) of 0.367. In the case of “GUGUGUGGUGUUGGCCUCUAACACCGCGCA [gtspaired]”, the binding signal (log2 fold change) is reported as -0.785. “UUUUUUUUUUGAGAGGGUAACCCUUUCCAG [tttttgagapaired]” showed a binding signal (log2 fold change) of 0.11. With “UUUUUUUUUUGAGACGGCUGCCGUCUCCAG [tttttgagapaired]” the binding signal (log2 fold change) was 0.844. Sequence “UUUUUUUUUUGAGACUGAGCCAGUCUUCUA [tttttgagapaired]” has a binding signal (log2 fold change) of 0.0583. With “GUGUUGUGUGUUGGUCUCUAACACACAGCA [gtspaired]” the binding signal (log2 fold change) was -0.947. With “GUGUGUGGUGUUGGAGUCUAACACCGCAUA [gtspaired]” the binding signal (log2 fold change) was -0.682. Work on “GUGGUGUGUGUUGGCGUCUAACACAUACCA [gtspaired]” yielded a binding signal (log2 fold change) of -0.391. For “GGUGUUGGUGUUGGAAUCUAACACCGAUAC [gtspaired]”, the binding signal (log2 fold change) was -0.372. For “UUUUUUUUUUGAGAUGGUGACUAUCUCCGG [tttttgagapaired]”, the binding signal (log2 fold change) was 0.35. In the case of “UUUUUUUUUUGAGAUGGCUGCCAUCUUCUA [tttttgagapaired]”, the binding signal (log2 fold change) is reported as 0.539. Work on “UUUUUUUUUUGAGAGUGCAGCAUUCUCCGG [tttttgagapaired]” yielded a binding signal (log2 fold change) of 0.426. Work on “UUUUUUUUUUGAGACUGAAUCAGUCUUCUA [tttttgagapaired]” yielded a binding signal (log2 fold change) of -0.121. Sequence “UUUUUUUUUUGAGAUGGAGACCAUCUCCUA [tttttgagapaired]” has a binding signal (log2 fold change) of 0.265. Sequence “UUUUUUUUUUGAGACUGGACCAGUCUCCUG [tttttgagapaired]” has a binding signal (log2 fold change) of 0.528. “UUUUUUUUUUGAGACUGCGACAGUCUUCUA [tttttgagapaired]” showed a binding signal (log2 fold change) of 0.335. With “UUUUUUUUUUGAGAUGGUCUCUAUCUCCGG [tttttgagapaired]” the binding signal (log2 fold change) was 0.371. For “UUUUUUUUUUGAGAGGGCGUCCCUCUCCUG [tttttgagapaired]”, the binding signal (log2 fold change) was 1.09. “UUUUUUUUUUGAGAACGGGGCGUUCUCCAG [tttttgagapaired]” gave a binding signal (log2 fold change) of 0.453. In the case of “GUUGUGUGUGUUGGCGUCUAACACACACAG [gtspaired]”, the binding signal (log2 fold change) is reported as -1.1. Sequence “UUCUCUCUUCCUCCAGAGGAGGAGGAGGGA [ctspaired]” has a binding signal (log2 fold change) of 0.0644. “UUUUUUUUUUGAGAGGGCGUCCUUCUCCAG [tttttgagapaired]” showed a binding signal (log2 fold change) of 0.876. Work on “UUUUUUUUUUGAGAUCGUGACGAUCUCCAG [tttttgagapaired]” yielded a binding signal (log2 fold change) of 0.225. For “UUUUUUUUUUGAGAGGGGAACCCUCUCCAG [tttttgagapaired]”, the binding signal (log2 fold change) was 0.201. In the case of “GUGUGUUGUGUUGGCGUCUAACACAGCGCG [gtspaired]”, the binding signal (log2 fold change) is reported as -0.681. “UUUUUUUUUUGAGAGGGGACCCUUCUCCAG [tttttgagapaired]” was tested, and the binding signal (log2 fold change) was 0.103. Work on “UUUUUUUUUUGAGAGGGAACCCCUUUCCGG [tttttgagapaired]” yielded a binding signal (log2 fold change) of -0.0851. Work on “GUGUGUGGUGUUGGCACCUAACACCAUACG [gtspaired]” yielded a binding signal (log2 fold change) of -0.581. Sequence “UUUUUUUUUUGAGAACGAAGCGUUCUCCUA [tttttgagapaired]” has a binding signal (log2 fold change) of 0.00319. Work on “GUGUGUUGUGUUGGUAUCUAACACAACGCG [gtspaired]” yielded a binding signal (log2 fold change) of -0.479. “UUUUUUUUUUGAGAUGGUAACUAUCUCCUG [tttttgagapaired]” was tested, and the binding signal (log2 fold change) was 0.394. Sequence “UUUUUUUUUUGAGAUGGCAUCCAUCUCCAG [tttttgagapaired]” has a binding signal (log2 fold change) of 0.316. “UUUUUUUUUUGAGAACGAACCGUUCUCCAG [tttttgagapaired]” was tested, and the binding signal (log2 fold change) was 0.139. Sequence “UUUUUUUUUUGAGAGGGAGUCCCUCUUCUA [tttttgagapaired]” has a binding signal (log2 fold change) of 0.738. “UUUUUUUUUUGAGAUGGCAACCAUCUCCUA [tttttgagapaired]” showed a binding signal (log2 fold change) of 0.325. “UUUUUUUUUUGAGACUGGGGCAGUUUCCGG [tttttgagapaired]” showed a binding signal (log2 fold change) of 0.921. “UUUUUUUUUUGAGACCGUGGCGGUCUUCUA [tttttgagapaired]” gave a binding signal (log2 fold change) of 0.479. In the case of “GUUGGUGGUGUUGGCGUCUAACACCAUCAA [gtspaired]”, the binding signal (log2 fold change) is reported as -0.549.
